Among all 340,000 compounds or so, about 12,000 (3.5%) were called active. The inconclusive results got no clear call from the source; some entries with a clear call stand among them for comparison. The call rests on the fitted dose curve; in most records, active means well fitted inhibition curve with a large enough effect; inconclusive means small, poorly fitted or top-dose-only effect, or another doubt; inactive means no such curve, though single readings can be large or run the other way. Potencies of inconclusive entries are left out as doubtful fits.
Assay: qHTS Assay for Inhibitors of Hepatitis C Virus (HCV)
Conditions: Huh7.5.1 HCVcc-Cre (HCVcc is cell-culture hepatitis C virus) infection, luciferase reporter, 44 h; series mostly up to 41.8 µM
Procedure, shortened: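 Antiviral activity was scored by luciferase reporter output from cells infected with HCVcc-Cre (~0.5 moi) in presence of compound, 44 h infection period, cells seeded 1,000/well 4 h prior.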
With `O=C1C2CCCCN2C(=O)N1CCCCN1CCN(c2cccc(Br)c2)CC1` (stereo not given) the Potency was inconclusive [inhibitor, single point].
With `CCCNS(=O)(=O)c1ccc(OCC(=O)N2CCN(Cc3ccc4c(c3)OCO4)CC2)c(C)c1` the Potency was active: 7.94 µM.
With `N#Cc1nc(-c2ccco2)oc1NCCc1ccccc1` the Potency was inconclusive [inhibitor, single point].
For `COc1cc(OC)c(/C=N/NC(N)=S)cc1Br`, the Potency was inconclusive [inhibitor, partial curve].
With `O=C(Nc1cccc(S(=O)(=O)N2CCCCCC2)c1)C1CC(=O)N(c2ccc3c(c2)OCCO3)C1` (stereo not given) the Potency was inconclusive [inhibitor, single point].
For `Cc1ccc(Nc2nc(CSc3nnc(-c4cccnc4)n3-c3ccccc3F)cs2)cc1`, the Potency was “inactive”.
In the case of `Oc1ccccc1-c1cc(C(F)(F)C(F)F)[nH]n1`, the Potency is reported as inconclusive [inhibitor, partial curve].
For `CCC(C)NC(=O)c1ccc2c(c1)N(Cc1ccccc1)C(=O)CS2` (stereo not given), the Potency was inconclusive [inhibitor, partial curve].
With `O=C1c2ccccc2C(=O)N1CC(O)COc1ccccc1Cl` (stereo not given) the Potency was “inactive”.
With `CC(C)c1nc(Cl)c(C#N)c2c1CCC2` the Potency was “inactive”.
For `O=S(=O)(c1ccccc1)c1nc(-c2ccco2)oc1NCCCn1ccnc1`, the Potency was “inactive”.
In the case of `O=C(CSc1nc2ccc(Cl)cc2[nH]1)NCCc1ccccc1`, the Potency is reported as inconclusive [inhibitor, single point].
In the case of `Cc1cc(NCCN(C)C)n2nc(-c3cccs3)cc2n1`, the Potency is reported as inconclusive [inhibitor, partial curve, poor fit].
With `CC(=O)c1cccc(NS(=O)(=O)c2ccc(-c3cc(C)no3)s2)c1` the Potency was inconclusive [inhibitor, single point].
With `Nc1nonc1-n1nnc(C(=O)N/N=C/c2cccnc2)c1-c1ccccc1` the Potency was “inactive”.
With `C=CCN1C(=O)[C@@H]2Cc3c([nH]c4ccccc34)C(c3ccc(O)cc3)N2C1=S` (stereo not given in full) the Potency was inconclusive [inhibitor, single point].
For `CCOC(=O)N1CCN(C(=O)CN(c2ccc(C)cc2)S(=O)(=O)c2c(C)noc2C)CC1`, the Potency was inconclusive [inhibitor, single point].
In the case of `Cc1ccc(C23CC4CC(CC(NC(=O)NCCN(C)C)(C4)C2)C3)cc1`, the Potency is reported as inconclusive [inhibitor, single point].
In the case of `C=CC[C@@H](CC(=O)N[C@@H](CO)Cc1ccccc1)C(=O)N[C@@H](C)COC(=O)[C@@H](CC=C)Cc1ccc(F)cc1`, the Potency is reported as inconclusive [inhibitor, partial curve].
With `CCOc1ccc(N2CC(C(=O)NCCCc3ccccc3)CC2=O)cc1` (stereo not given) the Potency was “inactive”.
For `COc1ccc(NC(=O)NC2CCCc3ccccc32)cc1OC` (stereo not given), the Potency was inconclusive [inhibitor, partial curve].
In the case of `Oc1ccc2c3c1OC1c4[nH]c5ccccc5c4C[C@@]4(O)C(C2)N(CC2CC2)CC[C@]314` (stereo not given in full), the Potency is reported as inconclusive [inhibitor, partial curve].
For `Cc1ccc(-n2[nH]c(C)c(C=Nc3cc(C)ccn3)c2=O)cc1`, the Potency was “inactive”.
In the case of `CC[n+]1c(/C=C2\C=C(C)CC(C)C2)sc2ccccc21` (stereo not given), the Potency is reported as “inactive”.
In the case of `CC(C)(C)c1ccc(C(=O)NNC(=O)c2cccc(Br)c2)cc1`, the Potency is reported as inconclusive [inhibitor, partial curve].
In the case of `CNc1ccc(/C=C/C(=O)c2cccc3ccccc23)cc1[N+](=O)[O-]`, the Potency is reported as inconclusive [inhibitor, partial curve].
For `O=C(c1ccc(CNS(=O)(=O)c2cccc(Cl)c2)cc1)N1CCCCC1`, the Potency was inconclusive [inhibitor, partial curve].
With `CCOc1ccc(C(=O)NCCNC(=O)c2ccc(OCC)cc2)cc1` the Potency was “inactive”.
With `Cc1cccc2nc(=S)n(C(=O)c3ccco3)n12` the Potency was “inactive”.
In the case of `N#Cc1c(N2CCN(c3ccc([N+](=O)[O-])cc3)CC2)[n+](=O)c2ccc(Cl)cc2n1[O-]`, the Potency is reported as inconclusive [inhibitor, full curve].
For `CC1CCCCC1NC(=O)c1ccc(S(=O)(=O)NCC2CCCO2)cc1` (stereo not given), the Potency was “inactive”.
With `CCN(CC)C(=S)Nc1ccc(Cl)c(Cl)c1` the Potency was inconclusive [inhibitor, single point].
For `Cc1ccc2c(n1)sc1c(-c3ccccc3)c(C#N)c(N)nc12`, the Potency was inconclusive [inhibitor, partial curve].
In the case of `CCOc1ccc2nc3c(cc2c1)CN(CCCO)C(=NCCOC)S3`, the Potency is reported as “inactive”.
For `Cc1cc(C)cc(NC(=O)C(c2ccccc2)N2CCN(CC(=O)N3CCCC3)CC2)c1` (stereo not given), the Potency was “inactive”.
For `Cn1c(CNC(=O)c2ccc(Cl)c(Cl)c2)nnc1SCC(=O)Nc1sc2c(c1C#N)CCCC2`, the Potency was inconclusive [inhibitor, single point].
With `CCCc1nc(NCCCOCC)c2nnn(Cc3ccccc3)c2n1` the Potency was “inactive”.
In the case of `CCC(=O)Nc1cccc(NC(=O)c2ccc3c(c2)OCCO3)c1`, the Potency is reported as inconclusive [inhibitor, partial curve].
For `CCC(CO)Oc1cc(NC(=O)Cc2ccccc2)c2ncn(C(C)C)c2c1` (stereo not given), the Potency was inconclusive [inhibitor, partial curve].
In the case of `Cc1ccc(-n2nnnc2SCC(=O)N2CCc3ccccc3C2)cc1`, the Potency is reported as inconclusive [inhibitor, single point].
With `Cc1ccc(NC(=O)CNCc2ccccc2Cl)cc1S(=O)(=O)N(C)C` the Potency was “inactive”.
For `Cc1ccc(NC(=O)CCCCCNS(=O)(=O)c2ccc(C)cc2)cc1`, the Potency was inconclusive [inhibitor, single point].
For `O=S(=O)(NCC1CCN(c2ccc(S(=O)(=O)N3CCOCC3)cc2)CC1)c1ccc(F)cc1`, the Potency was inconclusive [inhibitor, single point].
For `CCN(CC)c1ccc(/C=N/NC(=O)c2cnccn2)c(O)c1`, the Potency was active: 3.55 µM.
In the case of `O=C1CN(C(=O)N[C@@H](Cc2ccccc2)C(=O)N[C@H](C(=O)O)c2ccccc2)c2ccccc2N1`, the Potency is reported as “inactive”.
For `CCc1ccc2c(c1)c1nc(C)sc1n2CC`, the Potency was inconclusive [inhibitor, partial curve].
In the case of `OC1CCN(Cc2cccc3ccccc23)CC1`, the Potency is reported as “inactive”.
For `CC(C)c1nc2oc3c(N4CCN(C)CC4)ncnc3c2c2c1CCC2`, the Potency was inconclusive [inhibitor, partial curve].
For `Cc1cc(C(=O)CCl)c(C)n1CCc1ccc(Cl)cc1`, the Potency was active: 10 µM.
With `COc1ccc(CNc2nc(NCc3ccc(OC)cc3)n(C(=O)c3ccccc3[N+](=O)[O-])n2)cc1` the Potency was inconclusive [inhibitor, partial curve].
In the case of `Cc1ccc(-c2n[nH]c3c2CCC3)cc1`, the Potency is reported as inconclusive [inhibitor, single point].
For `CC(C)Cn1c([N+](=O)[O-])nc2c1c(=O)[nH]c(=O)n2C`, the Potency was inconclusive [inhibitor, single point].
For `CCN(Cc1ccccc1)S(=O)(=O)c1ccc(C(=O)N(CCCN(C)C)c2nc3cc4c(cc3s2)OCO4)cc1`, the Potency was inconclusive [inhibitor, single point].
For `Cc1ccc([C@@H]2[C@@H]3C(=O)N(C)C(=O)[C@@H]3[C@]3(C)C(=O)N(Cc4ccccc4)CC(=O)N23)o1`, the Potency was “inactive”.
With `O=C(c1cc(-c2cccs2)on1)N1CCN(c2ccccc2)CC1` the Potency was inconclusive [inhibitor, single point].
For `C=CCOc1c2ccc(C(=O)NC3CCCc4ccccc43)cc2nn1C` (stereo not given), the Potency was inconclusive [inhibitor, single point].
With `O=C1CCN(Cc2ccccc2)CCN1[C@H](COc1ccccc1)Cc1ccccc1` the Potency was “inactive”.
In the case of `O=C(/C=C/Nc1ccc(Br)cn1)c1cccc(OC(F)F)c1`, the Potency is reported as inconclusive [inhibitor, full curve].
In the case of `CNCc1cn2cc(Cl)ccc2n1`, the Potency is reported as inconclusive [inhibitor, partial curve].
With `CCOc1ccc(CN2C(=O)c3ccccc3Sc3ccc(C(=O)NCCCN4CCOCC4)cc32)cc1` the Potency was inconclusive [inhibitor, single point].
For `Cc1cccnc1NC(=O)c1ccc(NS(=O)(=O)/C=C/c2ccccc2)cc1`, the Potency was inconclusive [inhibitor, single point].
In the case of `COc1ccc(NC(C)=O)cc1S(=O)(=O)Nc1ccc2c(c1)OCCO2`, the Potency is reported as “inactive”.
For `Nc1ncnc2c1ncn2[C@@H]1O[C@H](COP(=O)(O)O)[C@@H](O)[C@H]1O`, the Potency was active: 0.562 µM.
In the case of `COc1ccc2cc(C#N)c(N3CCOCC3)nc2c1`, the Potency is reported as inconclusive [inhibitor, single point].
With `Cc1ccc(NC(=O)CCN2C(=O)c3ccccc3C2=O)cc1C` the Potency was “inactive”.
With `Cc1cccc(Oc2ccc(N)cc2)c1` the Potency was inconclusive [inhibitor, single point].
For `O=C(Nc1cccc2ccccc12)c1ccc(OC(=S)N2CCOCC2)cc1`, the Potency was inconclusive [inhibitor, single point].
With `COc1ccc(CN(Cc2cccnc2)C(=S)NCCc2ccccc2)cc1OC` the Potency was “inactive”.
In the case of `O=C(NCC(=O)N1CCN(Cc2ccccc2)CC1)c1cc(Cl)cc([N+](=O)[O-])c1`, the Potency is reported as inconclusive [inhibitor, single point].
For `COc1ccc(C(CNC(=O)COc2ccc(Cl)c(C)c2)N2CCCCC2)cc1` (stereo not given), the Potency was inconclusive [inhibitor, single point].
Potency means the concentration at half of the fitted maximal effect; tags describe the fitted curve by direction and shape.
